# In article PMC4336329 (PLoS ONE, 2015):
# Screen size: about 310,000 compounds; about 14,000 (4.5%) showed an effect of 50% or more. Effects have a minus sign here. Some of the results follow.
# Molecular target: human ether-à-go-go-related gene (hERG) potassium channel (human, UniProt Q12809)
# Assay: primary screen, population patch clamp on CHO cells stably expressing hERG
# 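Further: peak tail current of the secondary pulse compared with the same well before compound.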
# Chain of human ether-à-go-go-related gene (hERG) potassium channel (Q12809 whole entry, looked up): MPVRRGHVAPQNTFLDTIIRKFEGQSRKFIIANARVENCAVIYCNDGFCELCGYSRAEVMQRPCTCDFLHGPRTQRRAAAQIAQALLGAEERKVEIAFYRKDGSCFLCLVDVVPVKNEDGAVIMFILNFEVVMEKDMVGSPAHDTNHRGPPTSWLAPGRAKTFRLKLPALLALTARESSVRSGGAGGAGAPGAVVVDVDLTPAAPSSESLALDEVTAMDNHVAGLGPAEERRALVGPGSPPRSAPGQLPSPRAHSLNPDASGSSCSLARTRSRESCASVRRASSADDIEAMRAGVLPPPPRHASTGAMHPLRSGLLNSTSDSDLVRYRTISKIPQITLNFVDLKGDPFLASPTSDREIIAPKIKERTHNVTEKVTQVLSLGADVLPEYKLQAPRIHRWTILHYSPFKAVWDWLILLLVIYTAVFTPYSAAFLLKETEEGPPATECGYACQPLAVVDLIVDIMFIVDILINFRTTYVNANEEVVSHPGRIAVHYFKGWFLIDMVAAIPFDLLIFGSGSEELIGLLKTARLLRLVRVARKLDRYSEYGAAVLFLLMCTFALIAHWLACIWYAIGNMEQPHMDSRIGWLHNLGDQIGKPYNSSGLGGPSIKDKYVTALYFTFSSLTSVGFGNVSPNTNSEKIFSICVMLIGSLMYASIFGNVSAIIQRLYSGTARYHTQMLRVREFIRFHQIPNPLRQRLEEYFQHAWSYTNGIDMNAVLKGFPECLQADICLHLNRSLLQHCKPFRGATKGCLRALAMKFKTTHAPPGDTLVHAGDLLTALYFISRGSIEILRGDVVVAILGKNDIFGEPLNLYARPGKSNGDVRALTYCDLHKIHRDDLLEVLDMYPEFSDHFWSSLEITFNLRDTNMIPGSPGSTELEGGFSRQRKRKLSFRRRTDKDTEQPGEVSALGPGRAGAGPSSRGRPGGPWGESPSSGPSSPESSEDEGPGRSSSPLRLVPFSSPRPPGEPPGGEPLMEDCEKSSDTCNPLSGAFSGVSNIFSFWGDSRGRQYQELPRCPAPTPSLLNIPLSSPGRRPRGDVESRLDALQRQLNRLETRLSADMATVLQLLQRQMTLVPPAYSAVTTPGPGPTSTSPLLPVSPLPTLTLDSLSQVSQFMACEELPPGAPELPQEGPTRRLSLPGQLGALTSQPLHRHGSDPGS
row,Compound,"hERG current change (%, negative = inhibition) at 10uM"
1,CCCC/C(=N\NC(=O)c1ccc(Br)o1)c1ccccc1,10.5%
2,CC(C)CN1C(=O)c2ccc(C(=O)Nc3ccccn3)cc2C1=O,-14.7%
3,CC(=O)NCCC(=O)Nc1ccc(C(N)=O)cc1,3.52%
4,COc1cccc(C(=O)NCCC(=O)NCc2cc(=O)n(C)c(=O)n2C)c1,13.9%
5,CCOC(=O)c1sc2ncnc(NCC(c3cccs3)N(C)C)c2c1C (stereo not shown),5.57%
6,O=C(c1c[nH]c2ccccc12)C(F)(F)F,-5.59%
7,CCSc1nnc2c(n1)OC=Nc1ccc(Br)cc1-2,-6.1%
8,CC1CC2c3cccc(C(=O)O)c3C(=O)N2c2ccc(Cl)cc21 (stereo not shown),5.97%
9,COC(=O)Cc1nc(Nc2ccccc2)sc1C,12.8%
10,Cc1cccc(CNc2ncc(-c3cccc([N+](=O)[O-])c3)n2C)c1.O=C(O)C(=O)O,-71.1%
11,Cn1[nH]c(CSc2ccc(Cl)cc2)cc1=O,12.7%
12,COc1cccc(N(CC(=O)NCC2CCCO2)C(=O)CCC(=O)Nc2nccs2)c1 (stereo not shown),16.3%
13,C=CCn1c(-c2ccc(Cl)cc2)c[nH]c1=S,19.4%
14,O=C(C1=C[C@@H](C2CC2)C[C@@H](OCc2ccc(CO)cc2)O1)N1CCN(Cc2ccccc2)CC1,-58.7%
15,CC(=O)c1ccc(N2CCN(C(=O)c3ccc4nc[nH]c4c3)CC2)cc1,3.37%
16,CCOC(=O)C1(CCOc2ccccc2)CCN(Cc2ccc(C)o2)CC1,-75%
17,CCn1c(=O)cc(N2CCN(Cc3ccccc3)CC2)[nH]c1=O,6.79%
18,COc1ccc(-c2cc(C(=O)Nc3ccccc3F)on2)cc1,23.3%
19,Cc1ccc(C(C)NC(=O)c2ccc3c(c2)OCO3)cc1C (stereo not shown),-47.7%
20,COc1cccc(NC(=O)CN(C)S(=O)(=O)/C=C/c2ccccc2)c1,-20.7%

row,Compound,"hERG current change (%, negative = inhibition) at 10uM"
1,Cc1cccc(N/C=C(\[N+](=O)[O-])S(=O)(=O)c2ccccc2)c1,24.2%
2,Cc1ccc(NC(=O)CCS(=O)(=O)c2cccc3nonc23)c(Br)c1,6.97%
3,O=C1CCc2ccc(NC(=O)C3CC3)cc2N1,0.309%
4,O=C(c1ccccn1)N(Cc1cccs1)C1(C(=O)NC2CCCCC2)CCCCC1,17.1%
5,CCN(CC)CCN1C(=O)c2oc3ccc(F)cc3c(=O)c2C1c1ccncc1 (stereo not shown),-7.67%
6,COc1cc(OC)cc(N(C(=O)CNC(=O)c2cccs2)C(C(=O)NCC2CCCO2)c2ccccc2)c1 (stereo not shown),9.26%
7,Br.C=CCn1c(=N)n(CC(=O)c2ccc(Br)s2)c2ccccc21,-58.6%
8,Cn1c(-c2ccc(F)cc2)cnc1NCc1ccc(F)cc1,-40.7%
9,O=C(CCN1CCN(CC(=O)Nc2ccccc2Cl)CC1)Nc1ccccc1F,-69.1%
10,O=C(Nc1cccnc1)c1cnn2c(C(F)F)cc(C3CC3)nc12,-57.6%
11,CN(C)CCSc1nc(-c2ccccc2)nc2c1COC(C)(C)C2,-69.1%
12,O=C(O)CCCNS(=O)(=O)c1cccc2nsnc12,26.7%
13,Cc1ccc(S(=O)(=O)NC(=O)Nc2cc(C)ccc2F)cc1,-5.64%
14,C[C@@H](NC(=O)c1[nH]cnc1C(=O)Nc1nccs1)c1ccccc1,-3.32%
15,Nc1scc2c(C(=O)O)nn(-c3ccccc3)c(=O)c12,-4.16%
16,O=C(COc1ccc2ccccc2c1)Nc1ccc2c3c(cccc13)CC2,3.91%
17,O=C(NCc1ccccc1)C1CCC(=O)N(CC2CCCCC2)C1 (stereo not shown),9.03%
18,O=C(O)CSc1nnc(CSc2nc3ccccc3s2)n1-c1ccccc1,17%
19,CC(C)NC(=O)CSc1nc2sccc2c(=O)n1-c1ccccc1,10.8%
20,CC(C)C(=O)NC(C)C(c1cccs1)N1CCOCC1 (stereo not shown),5.94%

row,Compound,"hERG current change (%, negative = inhibition) at 10uM"
1,NC(=O)COc1ccc(/C=N/NC(=O)C2CCCN2S(=O)(=O)c2ccc(Cl)cc2)cc1 (stereo not shown),17.1%
2,O=C(Nc1ccccc1)c1cn2ccccc2n1,-2.28%
3,COCCn1c(SCc2cccnc2)nnc1-c1ccco1,3.7%
4,O=C(Nc1nc(-c2ccc(F)cc2)cs1)c1cccc(N2C(=O)CCC2=O)c1,9.67%
5,CSc1nc(N2CCOCC2)c2sccc2n1,-2.64%
6,CC(C)[C@H](Nc1ccc(S(=O)(=O)N2CCOCC2)cc1[N+](=O)[O-])C(=O)OCC(=O)N(C(C)C)C(C)C,-22.5%
7,CC1CCCN(c2ccc(C(=O)N3CCC4(CC3)OCCO4)cc2[N+](=O)[O-])C1 (stereo not shown),-0.496%
8,CCCCOc1ccc(Cc2c(O)nc(SC)[nH]c2=O)cc1,18.9%
9,Cc1ccc(-c2csc(NC(=O)c3ccc([N+](=O)[O-])o3)n2)cc1,6.85%
10,COC(=O)c1ccccc1NC(=O)Nc1cc(C(C)(C)C)on1,13.5%
11,O=[N+]([O-])c1ccc(-c2cnc(SC(c3ccccc3)c3ccccc3)[nH]2)cc1,11.1%
12,CC(C)(CN1CCN(c2ccccc2)CC1)NS(=O)(=O)c1ccccc1,-14.2%
13,COc1ccc(/C=C/C(=O)NC(=S)NNC(=O)c2cccs2)cc1,24.9%
14,O=C(CNC(=O)C1CCCCC1)Nc1ccc(Cl)cc1,13.9%
15,CCOc1ccc(CN(C)C(=O)c2ccc(S(=O)(=O)N(C)c3ccccc3OC)cc2)cc1,-7.85%
16,Cc1c(C(=O)NC2CCS(=O)(=O)C2)oc2ccccc12 (stereo not shown),17.5%
17,Cc1cc(C)n(-c2ccc(Cl)c(C(=O)O)c2)n1,27.6%
18,CCCNS(=O)(=O)c1ccc(OCC(=O)N2CCN(Cc3ccc4c(c3)OCO4)CC2)c(C)c1,-61.6%
